Legend:
Experiment in all cases: FP
[1] = biological target: TC-GAPDH E138R + D141R, purified (human, UniProt P04406 1-335, E138R | D141R)
[2] = biological target: human recombinant TC-GAPDH (GAPDH with a tetra-Cys insertion sequence near its heme binding site), wild type, … (human, UniProt P04406 1-335)
[3] = biological target: TC-GAPDH E138R, purified (human, UniProt P04406 1-335, E138R)
[4] = biological target: TC-GAPDH D141R, purified (human, UniProt P04406 1-335, D141R)

Sequence of UniProt P04406 (P04406 2-335): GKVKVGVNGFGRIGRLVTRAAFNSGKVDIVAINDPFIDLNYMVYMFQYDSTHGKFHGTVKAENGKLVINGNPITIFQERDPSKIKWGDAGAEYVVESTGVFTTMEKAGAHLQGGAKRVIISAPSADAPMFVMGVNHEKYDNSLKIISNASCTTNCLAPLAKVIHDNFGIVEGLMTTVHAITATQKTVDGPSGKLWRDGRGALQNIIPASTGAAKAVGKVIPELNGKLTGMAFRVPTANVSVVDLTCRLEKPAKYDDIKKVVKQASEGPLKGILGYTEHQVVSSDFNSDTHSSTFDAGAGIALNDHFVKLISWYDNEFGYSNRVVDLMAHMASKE

B1: N-terminally His6-tagged human IDO1 (indoleamine 2,3-dioxygenase 1), purified apo-IDO1 (enzyme)
chain: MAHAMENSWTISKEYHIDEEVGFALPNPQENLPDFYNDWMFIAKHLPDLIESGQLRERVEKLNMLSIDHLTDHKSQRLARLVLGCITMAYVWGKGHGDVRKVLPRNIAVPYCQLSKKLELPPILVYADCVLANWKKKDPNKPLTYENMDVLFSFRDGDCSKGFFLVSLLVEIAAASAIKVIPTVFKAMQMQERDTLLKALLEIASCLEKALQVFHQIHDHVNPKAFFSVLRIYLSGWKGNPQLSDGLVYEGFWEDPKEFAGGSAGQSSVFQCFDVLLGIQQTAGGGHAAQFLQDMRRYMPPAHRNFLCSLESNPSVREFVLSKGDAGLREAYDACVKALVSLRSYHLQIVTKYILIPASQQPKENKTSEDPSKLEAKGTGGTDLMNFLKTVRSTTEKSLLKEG
modifications: Alexa Fluor 488 on Cys groups (in the fluorescence polarisation assay only)
Kd [1]: 3.39 µM
Kd [2]: 1.79 µM
Kd [3]: 1.66 µM
Kd [4]: 3.45 µM

— publication PMC12329532 (2025)
